Some of the results follow.
How the values were obtained:
Assay in all cases: glycan array binding signal (z-score within array); higher = stronger binding
Settings in all cases: glycan notation: IUPAC condensed, linker removed
[1] = molecular target: Gal(a1-3)GalNAc
Method in brief: (§1)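 Glycan array data came from 3228 arrays in the Consortium for Functional Glycomics database, and only arrays with an available protein sequence were kept. Glycan names were put into IUPAC-condensed notation, and columns mapping to the same glycan were averaged. The binding signal is a within-array Z-score, averaged across arrays of one protein sequence run at different concentrations or buffers and across linkers. A negative Z-score can be read as non-binding.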

[2] = molecular target: Gal(a1-3)[Gal(a1-4)]Gal(b1-4)GlcNAc
Method in brief: as §1

[3] = molecular target: Gal(a1-4)Gal(b1-4)Glc
Method in brief: as §1

[4] = molecular target: Gal(a1-4)Gal(b1-4)GlcNAc
Method in brief: as §1

[5] = molecular target: Gal(a1-4)Gal(b1-4)GlcNAc(b1-3)Gal(b1-4)Glc
Method in brief: as §1

[6] = molecular target: Gal(a1-4)GlcNAc
Method in brief: as §1

[7] = molecular target: Gal(a1-6)Glc
Method in brief: as §1

[8] = molecular target: Gal(b1-2)Gal
Method in brief: as §1

[9] = molecular target: Gal(b1-3)Gal
Method in brief: as §1

[10] = molecular target: Gal(b1-3)Gal(b1-4)GlcNAc
Method in brief: as §1

[11] = molecular target: Gal(b1-3)Gal(b1-4)GlcNAc(b1-2)Man(a1-3)[Gal(b1-3)Gal(b1-4)GlcNAc(b1-2)Man(a1-6)]Man(b1-4)GlcNAc(b1-4)GlcNAc
Method in brief: as §1

[12] = molecular target: Gal(b1-3)GalNAc
Method in brief: as §1

[13] = molecular target: Gal(b1-3)GalNAc(a1-3)[Fuc(a1-2)]Gal(b1-4)Glc
Method in brief: as §1

[14] = molecular target: Gal(b1-3)GalNAc(a1-3)[Fuc(a1-2)]Gal(b1-4)GlcNAc
Method in brief: as §1

[15] = molecular target: Gal(b1-3)GalNAc(b1-3)Gal(a1-4)Gal(b1-4)Glc
Method in brief: as §1

[16] = molecular target: Gal(b1-3)GalNAc(b1-4)Gal(b1-4)Glc
Method in brief: as §1

[17] = molecular target: Gal(b1-3)GalNAc(b1-4)[Neu5Ac(a2-3)]Gal(b1-4)Glc
Method in brief: as §1

[18] = molecular target: Gal(b1-3)GlcNAc
Method in brief: as §1

[19] = molecular target: Gal(b1-3)GlcNAc(b1-2)Man(a1-3)[Gal(b1-3)GlcNAc(b1-2)Man(a1-6)]Man(b1-4)GlcNAc(b1-4)GlcNAc
Method in brief: as §1

[20] = molecular target: Gal(b1-3)GlcNAc(b1-2)Man(a1-3)[Gal(b1-3)GlcNAc(b1-2)Man(a1-6)]Man(b1-4)GlcNAc(b1-4)[Fuc(a1-6)]GlcNAc
Method in brief: as §1

[21] = molecular target: Gal(b1-3)GlcNAc(b1-3)Gal(b1-3)GlcNAc
Method in brief: as §1

[22] = molecular target: Gal(b1-3)GlcNAc(b1-3)Gal(b1-4)Glc
Method in brief: as §1

[23] = molecular target: Gal(b1-3)GlcNAc(b1-3)Gal(b1-4)GlcNAc
Method in brief: as §1

[24] = molecular target: Gal(b1-3)[Fuc(a1-4)]GlcNAc
Method in brief: as §1

[25] = molecular target: Gal(b1-3)[Fuc(a1-4)]GlcNAc(b1-2)Man(a1-3)[Gal(b1-3)[Fuc(a1-4)]GlcNAc(b1-2)Man(a1-6)]Man(b1-4)GlcNAc(b1-4)GlcNAc
Method in brief: as §1

[26] = molecular target: Gal(b1-3)[Fuc(a1-4)]GlcNAc(b1-2)Man(a1-3)[Gal(b1-3)[Fuc(a1-4)]GlcNAc(b1-2)Man(a1-6)]Man(b1-4)GlcNAc(b1-4)[Fuc(a1-6)]GlcNAc
Method in brief: as §1

[27] = molecular target: Gal(b1-3)[Fuc(a1-4)]GlcNAc(b1-3)Gal(b1-3)[Fuc(a1-4)]GlcNAc
Method in brief: as §1

[28] = molecular target: Gal(b1-3)[Fuc(a1-4)]GlcNAc(b1-3)Gal(b1-4)GlcNAc
Method in brief: as §1

[29] = molecular target: Gal(b1-3)[Fuc(a1-4)]GlcNAc(b1-3)Gal(b1-4)[Fuc(a1-3)]GlcNAc
Method in brief: as §1

[30] = molecular target: Gal(b1-3)[GlcNAc(b1-6)]GalNAc
Method in brief: as §1

[31] = molecular target: Gal(b1-3)[Neu5Ac(a2-6)]GalNAc
Method in brief: as §1

[32] = molecular target: Gal(b1-3)[Neu5Ac(a2-6)]GlcNAc(b1-6)Gal(b1-4)Glc
Method in brief: as §1

[33] = molecular target: Gal(b1-3)[Neu5Ac(b2-6)]GalNAc
Method in brief: as §1

[34] = molecular target: Gal(b1-4)GalNAc(a1-3)[Fuc(a1-2)]Gal(b1-4)GlcNAc
Method in brief: as §1

[35] = molecular target: Gal(b1-4)GalNAc(b1-3)[Fuc(a1-2)]Gal(b1-4)GlcNAc
Method in brief: as §1

[36] = molecular target: Gal(b1-4)Glc
Method in brief: as §1

[37] = molecular target: Gal(b1-4)Glc6S
Method in brief: as §1

[38] = molecular target: Gal(b1-4)GlcNAc
Method in brief: as §1

B1: HHL-1 (Homo sapiens), P07306 (protein)
chain: TKEYQDLQHLDNEESDHHQLRKGPPPPQPLLQRLCSGPRLLLLSLGLSLLLLVVVCVIGSQNSQLQEELRGLRETFSNFTASTEAQVKGLSTQGGNVGRKMKSLESQLEKQQKDLSEDHSSLLLHVKQFVSDLRSLSCQMAALQGNGSERTCCPVNWVEHERSCYWFSRSGKAWADADNYCRLEDAHLVVVTSWEEQKFVQHHIGPVNTWMGLHDQNGPWKWVDGTDYETGFKNWRPEQPDDWYGHGLGGGEDCAHFTDDGRWNDDVCQRPYRWVCETELDKASQEPPLL
**Q.** What does the source list for B1?
**A.** glycan array binding signal (z-score) [1]: -0.301; glycan array binding signal (z-score) [2]: 0.667; glycan array binding signal (z-score) [3]: -0.165; glycan array binding signal (z-score) [4]: -0.54; glycan array binding signal (z-score) [5]: -0.181; glycan array binding signal (z-score) [6]: -0.49; glycan array binding signal (z-score) [7]: -0.065; glycan array binding signal (z-score) [8]: -0.539; glycan array binding signal (z-score) [9]: 0.235; glycan array binding signal (z-score) [10]: 0.427; glycan array binding signal (z-score) [11]: -0.545; glycan array binding signal (z-score) [12]: -0.173; glycan array binding signal (z-score) [13]: -0.217; glycan array binding signal (z-score) [14]: -0.518; glycan array binding signal (z-score) [15]: -0.515; glycan array binding signal (z-score) [16]: -0.314; glycan array binding signal (z-score) [17]: 1.48; glycan array binding signal (z-score) [18]: -0.501; glycan array binding signal (z-score) [19]: -0.372; glycan array binding signal (z-score) [20]: 2.04; glycan array binding signal (z-score) [21]: 0.129; glycan array binding signal (z-score) [22]: -0.498; glycan array binding signal (z-score) [23]: 0.195; glycan array binding signal (z-score) [24]: 0.381; glycan array binding signal (z-score) [25]: -0.539; glycan array binding signal (z-score) [26]: -0.546; glycan array binding signal (z-score) [27]: -0.552; glycan array binding signal (z-score) [28]: -0.46; glycan array binding signal (z-score) [29]: 0.046; glycan array binding signal (z-score) [30]: -0.409; glycan array binding signal (z-score) [31]: -0.118; glycan array binding signal (z-score) [32]: -0.507; glycan array binding signal (z-score) [33]: 0.135; glycan array binding signal (z-score) [34]: -0.23; glycan array binding signal (z-score) [35]: 1.05; glycan array binding signal (z-score) [36]: -0.242; glycan array binding signal (z-score) [37]: -0.004; glycan array binding signal (z-score) [38]: -0.217

Reference: the supplement of paper PMC8728848
